The whole screen tested about 39,000 compounds, of which about 220 (0.56%) showed activity. This is one part of the list.
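Further: static incubation at 37 °C against the wild-type strain, values averaged over two biological replicates.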

This experiment relates to Escherichia coli K-12 BW25113. Nature of the experiment: relative growth (OD600 normalised to plate interquartile mean) (fraction); higher = less growth inhibition, active = 0.2 or less. The following applies: 50 µM; LB; incubation time: overnight (16-24 h).
On to `NCc1ccc(-n2cccn2)cc1`, for which the relative growth was inactive: 0.97.

In the case of `C[C@H]1CN([C@@H](C)CO)S(=O)(=O)c2ccc(C#CCN(C)C)cc2O[C@@H]1CN(C)Cc1ccc(F)cc1`, the relative growth is inactive: 0.983.

In the case of `C[C@@H]1CN([C@@H](C)CO)C(=O)c2ccccc2-c2ccccc2CO[C@@H]1CN(C)C(=O)Nc1cccc(Cl)c1Cl`, the relative growth was inactive: 0.991.

As for `CC(C)NC(=O)Nc1ccc2c(c1)C(=O)N([C@H](C)CO)C[C@H](C)[C@H](CN(C)Cc1ccc(C(=O)O)cc1)O2`, the relative growth is inactive: 1.02.

For `O=C(C[C@H]1C[C@@H]2c3cc(NC(=O)c4ccc5c(c4)OCO5)ccc3O[C@@H]2[C@H](CO)O1)NCc1ccccn1`, the relative growth is inactive: 0.922.

Take `C[C@@H]1CCCCO[C@H](CN(C)C(=O)Nc2cccc3ccccc23)[C@@H](C)CN([C@H](C)CO)C(=O)c2cc(NS(=O)(=O)c3cn(C)cn3)ccc2O1`: the relative growth is inactive: 0.998.

For the compound `C[C@H]1CN([C@@H](C)CO)C(=O)c2cc(NC(=O)CCN3CCOCC3)ccc2O[C@@H]1CN(C)S(=O)(=O)c1ccc(Cl)cc1`, the relative growth was inactive: 0.996.

In the case of `C[C@@H]1CCCCO[C@@H](CN(C)Cc2ccc3c(c2)OCO3)[C@@H](C)CN([C@@H](C)CO)C(=O)c2cc(NC(=O)NC3CCCCC3)ccc2O1`, the relative growth was inactive: 1.

Consider `C[C@@H]1CN([C@@H](C)CO)C(=O)Cc2cc(NC(=O)c3ccncc3)ccc2O[C@H]1CN(C)Cc1ccncc1`, for which the relative growth is inactive: 0.991.

On to `CC(C)NC(=O)Nc1ccc2c(c1)CC(=O)N([C@H](C)CO)C[C@H](C)[C@@H](CN(C)Cc1ccc3c(c1)OCO3)O2`, for which the relative growth is inactive: 1.02.

Consider `C[C@@H]1CN([C@@H](C)CO)C(=O)c2cc(NC(=O)c3ccccc3)ccc2O[C@@H](C)CCCCO[C@@H]1CN(C)C(=O)Nc1ccccc1`, for which the relative growth was inactive: 1.

For `C[C@H]1CN([C@@H](C)CO)C(=O)c2cc(NC(=O)Cn3cnnn3)ccc2O[C@@H]1CN(C)Cc1ccccc1`, the relative growth is inactive: 1.03.

Take `COc1ccc(-c2cnc3c(c2)C(=O)N([C@@H](C)CO)C[C@H](C)[C@H](CN(C)C(=O)Cc2cccnc2)O3)cc1`: the relative growth was inactive: 0.951.

Consider `C[C@]1(C(=O)NCC(F)(F)F)c2ccccc2C(=O)N(Cc2cc(C(F)(F)F)cc(C(F)(F)F)c2)[C@H]1c1ccc(CO)cc1`, for which the relative growth was inactive: 0.986.

Turning to `COCC(=O)Nc1ccc2c(c1)OC[C@H](C)N(C(=O)Cc1ccccn1)C[C@@H](C)[C@H](OC)CN(C)C2=O`, the relative growth is inactive: 0.974.

For the compound `COc1ccc(S(=O)(=O)N(C)C[C@@H]2Oc3c(cccc3N(C)C)C(=O)N([C@H](C)CO)C[C@H]2C)cc1`, the relative growth was inactive: 1.02.

Turning to `CC1(C)OC(=O)NC1=O`, the relative growth was inactive: 1.02.

With `O=S1(=O)[C@@H]2C[C@H]3C=CC2(CN1C1CC1)O3`, the relative growth was inactive: 1.01.

Consider `COCC(=O)Nc1ccc2c(c1)C(=O)N(C)C[C@@H](OC)[C@@H](C)CN(Cc1cccc(F)c1)[C@@H](C)CO2`, for which the relative growth is inactive: 1.01.

In the case of `c1ccc(-c2cc(-c3ccccc3)n(-c3ccccc3)n2)cc1`, the relative growth is inactive: 0.986.

As to `COc1ccc(S(=O)(=O)N(C)C[C@H]2Oc3cc(C#CC4CC4)ccc3S(=O)(=O)N([C@@H](C)CO)C[C@H]2C)cc1`, the relative growth was inactive: 1.07.

On to `C[C@H](CO)N1C[C@H](C)[C@H](CN(C)C(=O)Nc2ccc3c(c2)OCO3)Oc2ncc(C#CCN(C)C)cc2C1=O`, for which the relative growth is inactive: 0.993.

In the case of `COc1ccccc1C(=O)Nc1ccc2c(c1)C(=O)N(C)[C@H]1CC[C@H](CC(=O)NCc3ccc(Cl)c(Cl)c3)O[C@@H]1CO2`, the relative growth was inactive: 1.02.

On to `C[C@@H]1CN([C@@H](C)CO)C(=O)c2cc(NC(=O)Nc3ccccc3)ccc2O[C@@H](C)C/C=C/CO[C@H]1CN(C)S(=O)(=O)c1ccc(F)cc1`, for which the relative growth was inactive: 1.02.

Turning to `Cc1noc(C)c1S(=O)(=O)N(C)C[C@H]1OCCCC[C@@H](C)Oc2ccc(NS(C)(=O)=O)cc2C(=O)N([C@@H](C)CO)C[C@@H]1C`, the relative growth was inactive: 1.01.

Consider `C[C@H]1CCCCO[C@H](CN(C)S(=O)(=O)c2ccc(Cl)cc2)[C@@H](C)CN([C@@H](C)CO)C(=O)c2cc(NC(=O)Nc3ccc(F)cc3)ccc2O1`, for which the relative growth was inactive: 1.04.

For `C=C1C(=O)O[C@@H]2[C@H]3C(=CO[C@@H]4O[C@H](CO)[C@@H](O)[C@H](O)[C@H]4O)CC(=O)C3=C(C)CC[C@@H]12`, the relative growth was inactive: 1.

Take `Cn1cncc1C#N`: the relative growth was inactive: 0.984.

Turning to `C[C@H]1CCCCO[C@H](CN(C)C(=O)Nc2ccccc2)[C@@H](C)CN([C@@H](C)CO)C(=O)c2cc(NS(=O)(=O)c3ccccc3)ccc2O1`, the relative growth is inactive: 1.04.

In the case of `C[C@@H]1CN([C@H](C)CO)C(=O)c2cc(NC(=O)CCN3CCOCC3)ccc2O[C@H]1CN(C)Cc1ccc(C(=O)O)cc1`, the relative growth is inactive: 0.998.

Take `CC(CCC(=O)O)C1CCC2C3CCC4CC(O)CCC4(C)C3CC(O)C12C` (stereo not given): the relative growth is inactive: 0.859.

With `COc1ccc([C@@H]([C@H](Cc2ccccc2)OC(C)=O)N2C[C@@H](CC(=O)N(C)C)[C@H]3[C@@H]([C@@H]2Cc2ccccc2)N(C)O[C@@H]3c2ccccc2)cc1`, the relative growth is inactive: 1.03.

With `C[C@@H]1CN([C@H](C)CO)C(=O)c2cccc(NC(=O)Nc3ccc(F)cc3)c2O[C@@H]1CN(C)Cc1ccc(C(F)(F)F)cc1`, the relative growth was inactive: 1.01.

Regarding `C[C@@H]1CCCCO[C@H](CN(C)C(=O)CCC(F)(F)F)[C@H](C)CN([C@H](C)CO)C(=O)c2cc(NC(=O)Cc3ccccc3)ccc2O1`, the relative growth is inactive: 0.992.

With `COc1ccc(S(=O)(=O)Nc2cccc3c2O[C@@H](CN(C)C(=O)Nc2cccc4ccccc24)[C@@H](C)CN([C@@H](C)CO)C3=O)cc1`, the relative growth was inactive: 0.994.

For the compound `CC1=CC(=O)C2C(C)(C)CCCC2(C)C1(O)CCc1ccoc1` (stereo not given), the relative growth was inactive: 1.03.

`C[C@@H]1CCCCO[C@@H](CN(C)Cc2ccccc2)[C@@H](C)CN([C@H](C)CO)C(=O)c2cc(NS(=O)(=O)c3ccc(Cl)cc3)ccc2O1`: the relative growth was inactive: 0.996.

On to `CC(=O)N1[C@H](CNC(=O)CN2CCOCC2)[C@@H](c2ccccc2)[C@@H]1CO`, for which the relative growth is inactive: 1.01.

On to `C[C@H]1CN([C@@H](C)CO)C(=O)CCCn2cc(nn2)CO[C@@H]1CN(C)C(=O)C1CC1`, for which the relative growth was inactive: 1.04.

Consider `COc1ccc(NC(=O)N(C)C[C@H]2OCCCC[C@H](C)Oc3ccc(NS(=O)(=O)c4c(C)noc4C)cc3C(=O)N([C@@H](C)CO)C[C@H]2C)cc1`, for which the relative growth is inactive: 0.984.

Consider `Cc1ccc(-c2ccc3c(c2)O[C@H](CN(C)C(=O)CN(C)C)[C@H](C)CN([C@H](C)CO)S3(=O)=O)cc1`, for which the relative growth was inactive: 0.97.

For the compound `C[C@@H]1CN([C@H](C)CO)C(=O)c2cc(NC(=O)Cc3ccccc3)ccc2O[C@@H](C)CCCCO[C@H]1CN(C)C(=O)NC1CCCCC1`, the relative growth was inactive: 0.982.

Regarding `C[C@H]1CCCCO[C@@H](CN(C)C(=O)CCC(F)(F)F)[C@@H](C)CN([C@@H](C)CO)C(=O)c2cc(NC(=O)C3CCCCC3)ccc2O1`, the relative growth was inactive: 0.95.

For the compound `C[C@@H]1CN([C@@H](C)CO)C(=O)Cc2cc(NC(=O)Nc3ccccc3)ccc2O[C@@H]1CN(C)Cc1ccc(Cl)c(Cl)c1`, the relative growth is inactive: 1.02.

Consider `C[C@@H]1CN([C@H](C)CO)C(=O)c2cc(NC(=O)NC3CCCCC3)ccc2O[C@@H](C)CCCCO[C@@H]1CN(C)C(=O)Nc1ccc(F)cc1`, for which the relative growth is inactive: 1.

`CN(C)CCCC[C@@H]1NC(=O)[C@@H]2C[C@H](C(=O)NCCCCCCNC(=O)CS)[C@H](c3ccc(O)cc3)N2C1=O`: the relative growth is inactive: 1.

Consider `C[C@@H]1CN([C@H](C)CO)C(=O)c2cccc(NS(=O)(=O)c3cn(C)cn3)c2O[C@@H]1CN(C)Cc1ccccc1`, for which the relative growth is inactive: 0.995.

As for `COc1ccc(S(=O)(=O)Nc2cccc3c2O[C@@H](CN(C)CC2CC2)[C@H](C)CN([C@H](C)CO)C3=O)cc1`, the relative growth is inactive: 0.994.

As for `Cc1ncc(CSSCc2cnc(C)c(O)c2CO)c(CO)c1O`, the relative growth is inactive: 1.13.

On to `OC[C@H]1O[C@@H](Nc2ccccn2)[C@@H](O)[C@@H](O)[C@@H]1O`, for which the relative growth is inactive: 1.01.

As for `Cc1noc(C)c1NC(=O)Nc1ccc2c(c1)C(=O)N([C@H](C)CO)C[C@@H](C)[C@@H](CN(C)Cc1ccccc1)OCCCC[C@H](C)O2`, the relative growth was inactive: 1.04.

With `C[C@H](CO)N1C[C@H](C)[C@@H](CN(C)S(=O)(=O)c2cccs2)Oc2ccc(NC(=O)Cn3cnnn3)cc2CC1=O`, the relative growth is inactive: 1.

In the case of `C[C@H](CO)N1C[C@H](C)[C@H](CN(C)S(=O)(=O)c2cn(C)cn2)Oc2ccc(NC(=O)CCN3CCOCC3)cc2C1=O`, the relative growth is inactive: 1.02.

For the compound `CC(=O)NCC(=O)N1C[C@H](N(C)Cc2cncnc2)[C@@H]2OCCC[C@@H]21`, the relative growth is inactive: 1.

On to `C[C@@H]1CCCCO[C@H](CN(C)C(=O)Nc2ccc(C(F)(F)F)cc2)[C@@H](C)CN([C@H](C)CO)C(=O)c2cc(NC(=O)Cc3ccccc3)ccc2O1`, for which the relative growth is inactive: 1.04.

With `COc1ccc(CNC(=O)c2cc3c(c(-c4cccc(-c5cccc(C#N)c5)c4)n2)[C@@H](CCO)N([S@](=O)C(C)(C)C)C3)cc1`, the relative growth is inactive: 0.975.

Consider `C[C@@H]1CN([C@@H](C)CO)C(=O)c2cc(NC(=O)Cn3cnnn3)ccc2O[C@@H]1CN(C)S(=O)(=O)c1ccc(Cl)cc1`, for which the relative growth was inactive: 1.

As to `CC[C@H](C)n1ncn(-c2ccc(N3CCN(c4ccc(OC[C@H]5CO[C@](Cn6cncn6)(c6ccc(Cl)cc6Cl)O5)cc4)CC3)cc2)c1=O`, the relative growth is inactive: 1.04.

`CO[C@H]1CN(C)C(=O)c2cc(NC(=O)C3CC3)ccc2OC[C@@H](C)N(C(=O)Cc2ccccn2)C[C@H]1C`: the relative growth was inactive: 0.972.

As for `C[C@H](CO)N1C[C@H](C)[C@@H](CN(C)Cc2ccc(-c3ccccc3)cc2)Oc2ccc(NC(=O)Cc3cn(C)c4ccccc34)cc2CC1=O`, the relative growth was inactive: 0.985.

These data come from the supplement of paper PMC9446081.
